From patent US8809350B2, “Purine and pyrimidine CDK inhibitors and their use for the treatment of autoimmune diseases” (priority 2004, dated 2014)

Columns and labels:
[1] = test system: NZB/W F1 mice; settings: Example 2, daily from 5 months of age (CYC202 200 mg/kg gavage, MPS […] i.p.)
[2] = test system: NZB/W F1 mice; experiment: Proteinuria (urinary protein excretion) in NZB/W F1 lupus mice; type: in vivo; settings: Example 2; for Cumulative percentage of mice with proteinuria >4 mg/day: daily from 5 months of age (CYC202 200 mg/kg gavage, MPS […] i.p.)
Protocol: Urinary protein excretion: determined every month until 5 months of age and then every two weeks.
Urinary protein excretion: determined every month until 5 months of age and then every two weeks;
Urinary protein concentration was determined by the Coomassie blue G dye-binding assay with bovine serum albumin as standard. Renal function was assessed as BUN in heparinized blood by the Reflotron test (Roche Diagnostics Corporation, Indianapolis, USA).

[3] = test system: NZB/W F1 mice; settings: Example 2; for Renal Function - Cumulative % mice with BUN >30 mg/dl: daily from 5 months of age (CYC202 200 mg/kg gavage, MPS […] i.p.)

C[C@H]1C[C@@H]2[C@H]([C@@H](O)C[C@@]3(C)[C@H]2CC[C@]3(O)C(=O)CO)[C@@]2(C)C=CC(=O)C=C12 [MPS, 11,17,21-trihydroxy-6-methyl-(6a,11b)-pregna-1,4-diene-3,20-dione, reference compound]
Survival % ([1]; age 5 months (pre-treatment)): 100%
Survival % ([1]; age 5.5 months): 100%
Survival % ([1]; age 6 months): 100%
Survival % ([1]; age 6.5 months): 92%
Survival % ([1]; age 7 months): 75%
Survival % ([1]; age 7.5 months): 67%
Survival % ([1]; age 8 months): 67%
Survival % ([1]; age 8.5 months): 67%
Survival % ([1]; age 9 months): 42%
Survival % ([1]; age 9.5 months): 42%
Survival % ([1]; age 10 months): 33%
Survival % ([1]; age 10.5 months): 33%
Survival % ([1]; age 11 months): 33%
Survival % ([1]; age 11.5 months): 33%
Survival % ([1]; age 12 months): 33%
Cumulative percentage of mice with proteinuria >4 mg/day ([2]; age 5 months (pre-treatment)): 0%
Cumulative percentage of mice with proteinuria >4 mg/day ([2]; age 5.5 months): 0%
Cumulative percentage of mice with proteinuria >4 mg/day ([2]; age 6 months): 16.7%
Cumulative percentage of mice with proteinuria >4 mg/day ([2]; age 6.5 months): 33.3%
Cumulative percentage of mice with proteinuria >4 mg/day ([2]; age 7 months): 33.3%
Cumulative percentage of mice with proteinuria >4 mg/day ([2]; age 7.5 months): 50%
Cumulative percentage of mice with proteinuria >4 mg/day ([2]; age 8 months): 75%
Cumulative percentage of mice with proteinuria >4 mg/day ([2]; age 8.5 months): 75%
Cumulative percentage of mice with proteinuria >4 mg/day ([2]; age 9 months): 75%
Cumulative percentage of mice with proteinuria >4 mg/day ([2]; age 9.5 months): 75%
Cumulative percentage of mice with proteinuria >4 mg/day ([2]; age 10 months): 75%
Cumulative percentage of mice with proteinuria >4 mg/day ([2]; age 10.5 months): 75%
Cumulative percentage of mice with proteinuria >4 mg/day ([2]; age 11 months): 75%
Cumulative percentage of mice with proteinuria >4 mg/day ([2]; age 11.5 months): 75%
Cumulative percentage of mice with proteinuria >4 mg/day ([2]; age 12 months): 75%
Onset of proteinuria compared to vehicle ([2]; treatment from 5 months of age): only partially affected the onset of proteinuria
Renal Function - Cumulative % mice with BUN >30 mg/dl ([3]; age 5 months (before treatment)): 0%
Renal Function - Cumulative % mice with BUN >30 mg/dl ([3]; age 6 months): 0%
Renal Function - Cumulative % mice with BUN >30 mg/dl ([3]; age 7 months): 17%
Renal Function - Cumulative % mice with BUN >30 mg/dl ([3]; age 8 months): 42%
Renal Function - Cumulative % mice with BUN >30 mg/dl ([3]; age 9 months): 50%
Renal Function - Cumulative % mice with BUN >30 mg/dl ([3]; age 10 months): 58%
Renal Function - Cumulative % mice with BUN >30 mg/dl ([3]; age 11 months): 58%
Renal Function - Cumulative % mice with BUN >30 mg/dl ([3]; age 12 months): 67%
Renoprotective effect (serum BUN) ([3]; given alone versus in combination): less renoprotective effect than when used in combination

Where two headings read alike, the source gives them in different places.
